This note sets out measurements from PubChem BioAssay AID1745853 (National Center for Advancing Translational Sciences (NCATS), 2022).

Test in all cases: Primary Screen for Target Class Profiling of Small Molecule Inhibitors of Methyltransferases
For experiment [1], the target named is Glycine N-methyltransferase (Homo sapiens) (UniProt Q14749). Conditions: purified enzyme, MTase-Glo SAH luminescence; measured here: GNMT inhibition; at 40 µM; stronger effect = lower value. The essentials: (§1)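 Each enzyme was assayed with SAM and its substrate. SAH formation detected by MTase-Glo luminescence; single-point 40 uM screen[…].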
In experiment [2] the target is Guanidinoacetate N-methyltransferase (Homo sapiens) (UniProt Q14353). Particulars: purified enzyme, MTase-Glo SAH luminescence; measured here: GAMT inhibition; at 40 µM; stronger effect = lower value. The essentials: as §1
In experiment [3] the target is Histamine N-methyltransferase (Homo sapiens) (UniProt P50135). Particulars: purified enzyme, MTase-Glo SAH luminescence; measured here: HNMT inhibition; at 40 µM; stronger effect = lower value. The method in brief: as §1
The target of experiment [4] is Nicotinamide N-methyltransferase (Homo sapiens) (UniProt P40261). Particulars: purified enzyme, MTase-Glo SAH luminescence; measured here: NNMT inhibition; at 40 µM; stronger effect = lower value. The essentials:
as §1

For experiment [5], the target named is Phenylethanolamine N-methyltransferase (Homo sapiens) (UniProt P11086). Particulars: purified enzyme, MTase-Glo SAH luminescence; measured here: PNMT inhibition; at 40 µM; stronger effect = lower value. The method in brief: as §1

The list shows a part of the results. The main result of the screen is listed elsewhere. These columns were measured beside it and carry no call.
On the % scale 0 is the no-effect control and ±100 the full control effect.

Consider `CC(C)c1cc2n(n1)CC(C)(C(=O)NC1CCCCC1)N(Cc1cccc(Cl)c1)C2=O` (configuration not stated), for which the activity change, negative = inhibition in experiment [1] turned out to be 1.04%; in experiment [2], 0%; in experiment [3], 10.2%; in experiment [4], 5.62%; in experiment [5], 3.31%.
With `COc1cc(F)c(F)c(Nc2ccc(I)cc2F)c1NS(=O)(=O)C1(CC(O)CO)CC1` (configuration not stated), the activity change, negative = inhibition in experiment [1] is -1.5%; in experiment [3], 9.22%.
As for `CC(C)Cc1nc2nccc(-c3ccsc3)n2n1`, the activity change, negative = inhibition was -25.4% in experiment [1]; -6.67% in experiment [2]; -2.99% in experiment [3]; -29.4% in experiment [4]; -3.39% in experiment [5].
For `O=C(NC1CCN(c2cc(-c3cccs3)[nH]n2)C1)c1cccnc1` (configuration not stated), in that order: -10.7%, -6.5%, -3.12%, -21.5% and -12.4%.
For `O=C(CCC1CCN(S(=O)(=O)c2ccc(F)cc2)CC1)NC1CCCC1`, in that order: 15.5%, 0.631%, 15.1%, 5.47% and 10.9%.
For the compound `CCOC(=O)c1cc2n(n1)CC(C)(C(=O)NCCC(C)C)N(Cc1ccc(CC)cc1)C2=O` (configuration not stated), the activity change, negative = inhibition was 2.16% in experiment [1]; 3.97% in experiment [2]; -4.03% in experiment [3]; 4.48% in experiment [4]; -3.17% in experiment [5].
Consider `COc1ccc(CCN(C)CCc2ccc(OC)c(OC)c2)cc1OC`, for which the activity change, negative = inhibition was -3.99% in experiment [1]; 11.5% in experiment [2]; 7.79% in experiment [3]; -5.1% in experiment [4]; 3.71% in experiment [5].
In the case of `CCC(C)NC(=O)c1ccc2c(=O)n(CC(C)C)c3nn(Cc4cccc(Cl)c4)c(=O)n3c2c1` (configuration not stated), the activity change, negative = inhibition in experiment [1] was 4.01%; in experiment [2], 0%; in experiment [3] it was 9.37%; in experiment [4], 3.34%; in experiment [5], 2.55%.
For `CC1(C(=O)NC2CCCCCC2)Cn2c(cc3occc32)C(=O)N1Cc1ccco1` (configuration not stated), in that order: 0.487%, 1.53%, 0.302%, 0.742% and 1.07%.
As to `CC[N+](CC)(CC)CC`, the activity change, negative = inhibition was determined as 8.68% in experiment [1]; 22.2% in experiment [2]; 8.86% in experiment [3]; 4.73% in experiment [4]; 12.1% in experiment [5].
For `NC(=O)c1noc([C@H](CCCC2CCCCC2)CC(=O)NO)n1`, in that order: 0.099%, 0.115%, 6.33%, -19.6% and -4.6%.
For `CCc1ccccc1N1C(=O)Cn2cccc2C1C(=O)NC1CCCCC1C` (configuration not stated), the activity change, negative = inhibition was -3.56% in experiment [1]; 0.063% in experiment [2]; 0.576% in experiment [3]; 9.34% in experiment [4]; -1.05% in experiment [5].
In the same order, the values of `COc1ccc(OC)c2c1cc1n2CC(C)(C(=O)NC2CCCC2)N(Cc2ccccn2)C1=O` (configuration not stated) are -22.6%, 4.1%, 10.3%, -2.54% and -12.8%.
In the same order, the values of `Cc1c(N2C(=O)c3ccc(C(=O)O)cc3C2=O)c(=O)n(-c2ccccc2)n1C` are -1.28%, 2.46%, 8.73%, -5.57% and 3.31%.
Turning to `CC[C@@]1(O)C(=O)OCc2c1cc1n(c2=O)Cc2cc3cc(O)ccc3nc2-1`, the activity change, negative = inhibition in experiment [1] was -3.29%; in experiment [2], 6.43%; in experiment [3] it was 10.2%; in experiment [4], -10.6%; in experiment [5], 3.14%.
For `O=C(O)/C=C/c1ccc(O[C@@H]2O[C@H](CO)[C@@H](O)[C@H](O)[C@H]2O)cc1`, in that order: 0%, 5.23%, 8.56%, -4.49% and 5.37%.
In the case of `Cc1ccc(CN2C(=O)c3cc4sccc4n3CC2(C)C(=O)NC2CCCCC2)cc1` (configuration not stated), the activity change, negative = inhibition in experiment [1] is -12%; in experiment [2] it was -0.375%; in experiment [3], -5.56%; in experiment [4], -6.04%; in experiment [5], -4.63%.
Take `CN1C[C@@H](NS(=O)(=O)c2ccc(C#N)cc2)C[C@H]1c1nc(-c2ccc(Cl)cc2)no1`: the activity change, negative = inhibition is -8.2% in experiment [1]; -7.79% in experiment [2]; -5.18% in experiment [3]; -8.21% in experiment [4]; 3.63% in experiment [5].
Consider `CC(C)Cn1c(=O)c2ccc(Cl)cc2n2c(SCC(=O)Nc3ccccc3Cl)nnc12`, for which the activity change, negative = inhibition in experiment [1] was -2.44%; in experiment [2], 0%; in experiment [3], 5.94%; in experiment [4], -9.21%; in experiment [5] it was -12%.
On to `CCC(C)NC(=O)c1ccc2c(=O)n(C3CC3)c3nn(CC(=O)Nc4ccc(F)cc4)c(=O)n3c2c1` (configuration not stated), for which the activity change, negative = inhibition in experiment [1] is 7.68%; in experiment [2], 0%; in experiment [3], 13%; in experiment [4] it was 3.07%; in experiment [5], 8.18%.
For `COc1cccc(Cn2nc3n(CCC(C)C)c(=O)c4ccc(C(=O)NC(C)C)cc4n3c2=O)c1`, in that order: -2.8%, -7.75%, 8.15%, -4.56% and -4.78%.
In the same order, the values of `NC(=O)[C@H](CC1CCCCC1)NC(=O)[C@@H]1CN(C(=O)Nc2ccccc2)CCN1C(=O)C1CCCCC1` are -1.66%, -6.14%, -1.46%, -1.75% and -7.85%.
In the same order, the values of `Cc1cccc(NC(=O)N2CCn3cccc3C2C)c1C` (configuration not stated) are -0.108%, 0%, 0.292%, -9.66% and 0.052%.
On to `Cc1ccc2c(c1)c1c3n2CCN(CC(O)CN2CCN(C(=O)c4ccco4)CC2)C3CCC1` (configuration not stated), for which the activity change, negative = inhibition in experiment [1] was -4.88%; in experiment [2] it was 0%; in experiment [3], -3.68%; in experiment [4], 10.4%; in experiment [5], -6%.
As to `Cc1ccc(Cn2c(=O)c3ccccc3n3c(CCC(=O)N4CCN(c5cc(C)ccc5C)CC4)nnc23)cc1`, the activity change, negative = inhibition in experiment [1] was 5.43%; in experiment [2], 0%; in experiment [3], 10.2%; in experiment [4], -2.22%; in experiment [5] it was -4.08%.
On to `C[C@H](O)c1c(-c2ccc(F)cc2)noc1C(=O)N1CCCC1`, for which the activity change, negative = inhibition in experiment [1] was -1.39%; in experiment [2], -0.387%; in experiment [3] it was 1.52%; in experiment [4], -34.1%; in experiment [5], -2.88%.
For `Cc1cccc(-c2[nH]c(C(C)(C)C)nc2-c2ccc3nccnc3c2)n1`, in that order: -7.15%, 0.248%, -1.93%, -11.9% and 2.68%.
For `Cc1ccc(Nc2nc3c(S(=O)(=O)c4ccccc4)nnn3c3ccccc23)cc1`, in that order: 1.59%, 0.679%, 1.42%, 1.63% and -0.536%.
In the case of `COc1ccccc1CNC(=O)C1(C)Cn2c(cc3ccccc32)C(=O)N1Cc1ccc(F)cc1` (configuration not stated), the activity change, negative = inhibition in experiment [1] is -2.98%; in experiment [2], 1.5%; in experiment [3] it was -3.82%; in experiment [4], -10.3%; in experiment [5] it was -5.23%.
For `CC1CCN([C@@H]2[C@H](O)[C@H](CO)O[C@@H]2CNC(=O)c2ccc(F)c(Cl)c2)CC1`, in that order: -1.43%, 0.607%, -1.33%, -4.25% and 1.08%.
In the same order, the values of `CCN1CCN(Cc2ccc(NC(=O)c3ccc(C)c(Oc4ncnc5[nH]c(C)cc45)c3)cc2C(F)(F)F)CC1` are -11.1%, 2.16%, -34.2%, -24.5% and -3.14%.
In the same order, the values of `Cc1cc(C(=O)N2CCCC[C@H](N(C)C)C2)c(-c2ccccc2)o1` are 0.053%, 2.52%, -2.27%, -6.84% and 5.44%.
Take `O=C(CSc1nnc2n(Cc3ccccc3)c(=O)c3ccccc3n12)Nc1cccc(F)c1`: the activity change, negative = inhibition in experiment [1] is -10.5%; in experiment [2] it was 0.778%; in experiment [3], -1.23%; in experiment [4] it was -12.4%; in experiment [5] it was -6.17%.
For `CSc1ccc(CCNC(=O)Cn2ccc3cc(S(=O)(=O)N4CCCC4)ccc32)cc1`, in that order: 0.503%, 3.72%, 0.602%, -5.64% and -0.503%.
With `Cc1ccccc1/C=C/C1=NCCN1`, the activity change, negative = inhibition in experiment [1] is -16.9%; in experiment [2] it was 5.99%; in experiment [3] it was -9.21%; in experiment [4], -7.47%; in experiment [5], 1.32%.
For `CS(=O)(=O)c1cnc(NCCn2ccnc2)nc1C1CCCNC1` (configuration not stated), the activity change, negative = inhibition in experiment [1] is -5.77%; in experiment [2] it was -2.75%; in experiment [3] it was -3.92%; in experiment [4], -8.76%; in experiment [5], -9.17%.
For `Cc1ccc(C)c(CN2CC(=O)N(Cc3ccc(Cl)cc3)c3ccccc3S2(=O)=O)c1`, in that order: 15.1%, 2.72%, 12.1%, 6.58% and 9.79%.
For `CC(C)c1cc(C(=O)N2CCn3nc(C(=O)Nc4ccccc4)cc3C2)n[nH]1`, in that order: -7.27%, -8.16%, -3.99%, -8.51% and -18.3%.
In the same order, the values of `COc1ccc(NC(=O)CCc2nnc3n(Cc4ccc(Cl)cc4)c(=O)c4ccccc4n23)cc1OC` are -5.26%, 0.602%, -1.89%, -1.25% and -6.78%.
